The whole screen tested about 52,000 compounds, of which about 1,700 (3.3%) were called active. Rule as the data show it: active = survival mostly below about 52% (no sharp cut-off); inactive = mostly above about 56%. The list shows a part of the results.
Test system: Wild type
Assay: growth inhibition of S. aureus wild type versus tarO mutant, primary screen, teichoic acid synthesis inhibitors, RN4220, OD600 (AID 463173)
Conditions: S. aureus RN4220 wild type/DeltatarO growth, OD600, 18 h, stronger effect = lower value, screened at 18.75 µg/mL (by protocol)

SMILES	survival
COc1ccccc1CNC(=O)CN1C(=O)CSc2ccc(S(=O)(=O)N(C)C)cc21	inactive: 80%
CCOC(=O)c1c(C)[nH]c(CCC(=O)NCCCN2CCN(c3cc(C)ccc3C)CC2)c1C	inactive: 69%
O=C(CCNS(=O)(=O)c1ccc2c(c1)CCN2C(=O)C1CC1)N1CCN(c2ccccc2F)CC1	inactive: 82%
CCOc1ccc(S(=O)(=O)N2CCN(c3ccc(Cl)c(Cl)c3)CC2)c2ccccc12	inactive: 154%
CCn1nc(-c2ccccc2)c(-c2ccccc2)c(C(=O)Nc2nc(C)c(C(=O)N(C)C)s2)c1=O	inactive: 87%
CCCn1c(CCC(=O)Nc2cc(Cl)c(OC)cc2OC)nc2cccnc21	inactive: 84%
C/C(=N/O)c1ccc2c(c1)OCCO2	inactive: 101%
Cc1ccc(C)c(NC(=O)CSc2ncc3c(n2)-c2ccc(Cl)cc2N(C)S3(=O)=O)c1	inactive: 88%
CC(=O)OC(COc1ccccc1)Cn1cnc2cc(C)c(C)cc21 (stereo not given)	inactive: 125%
O=C(NC1CCCCC1)NC1CCN(S(=O)(=O)c2cccc(Cl)c2)CC1	inactive: 125%
COc1ccc(NC(=O)CC2C(=O)N(c3ccc(C)cc3)C(=O)N2C2CCCCC2)cc1 (stereo not given)	inactive: 74%
O=C(CCSCc1ccccc1Cl)N1CCN(c2cccc(Cl)c2)CC1	inactive: 75%
O=C(Cn1c(=O)n(-c2ccccc2Cl)c(=O)c2sc3ccccc3c21)N1CCCC1	inactive: 84%
CCOc1ccc(CNC(=O)c2cnc3sc(N(CC)CC)nn3c2=O)cc1OC	inactive: 73%
Cn1nccc1C(=O)Nc1cccnc1	inactive: 104%
CCc1nc2cccnc2n1-c1ccc(CC(=O)Nc2ccc(C)cc2)cc1	inactive: 74%
Cc1ccc(NC(=O)CSc2nc3nccnc3c(=O)n2CCc2c[nH]c3ccccc23)cc1	inactive: 99%
Cc1cc(C)cc(NC(=O)CCc2nnc3n(CC(C)C)c(=O)c4ccccc4n23)c1	inactive: 89%
CC(C)N(Cc1ccccc1)C(=O)CN1C(=O)COc2ccc(S(=O)(=O)NC3CCCC3)cc21	inactive: 92%
COc1ccc(-n2ccn(Cc3ccccc3Cl)c(=O)c2=O)cc1OC	inactive: 88%
CC(C)NC(=O)C1CCCCC1C(=O)O (stereo not given)	inactive: 88%
CCN(C(=O)CSc1nc2ccccc2n1CC(=O)Nc1ccccc1C)c1ccccc1	active: -6%
COc1cc(CNc2ccc3[nH]c(=O)[nH]c3c2)ccc1OCc1ccccc1F	inactive: 104%

SMILES	survival
CCN=C1SC(CC(=O)Nc2ccccc2)C(=O)N1CC (stereo not given)	inactive: 112%
COc1ccc(Cl)cc1NC(=O)CSc1ccc(-c2sc(C)nc2C)nn1	inactive: 79%
CC(C)Cc1nn2c(=O)cc(COC(=O)c3ccc4c(c3)OCO4)nc2s1	inactive: 73%
O=C(CNCCCN1CCOCC1)Nc1ccc(OC(F)(F)F)cc1	inactive: 114%
CCCNS(=O)(=O)c1ccc2[nH]c(=O)[nH]c2c1	inactive: 112%
COc1cc(OC)cc(C(=O)Nc2ncn[nH]2)c1	inactive: 93%
CCN(CC)S(=O)(=O)c1ccc(NC(=O)CCc2c(C)nc3cc(-c4ccc(Cl)cc4)nn3c2C)cc1	inactive: 105%
CN(C)c1ccc(C(CNS(=O)(=O)c2ccc(Br)cc2)N2CCCC2)cc1 (stereo not given)	inactive: 68%
CCOC(=O)c1cc2c(=O)n3ccccc3nc2n(CCCOC)c1=NC(=O)C(C)(C)Oc1ccc(Cl)cc1	inactive: 70%
Cc1cc2oc(C(=O)Nc3sc4c(c3C(=O)NCC3CCCO3)CCC4)cc(=O)c2cc1C (stereo not given)	inactive: 80%
O=C(Nc1ccc2oc(-c3cccnc3)nc2c1)c1ccc(-c2ccc(Cl)cc2)o1	inactive: 85%
COc1ccc(CNC(=O)CSc2nc3ccsc3c(=O)n2Cc2ccccc2Cl)cc1	inactive: 60%
CCc1ccc(N2C(=O)CC(c3cc(OC)ccc3OC)C3=C2COC3=O)cc1 (stereo not given)	inactive: 74%
CCOc1ccc(C2CC(=O)n3nc(-c4ccc(C)cc4)nc3S2)cc1 (stereo not given)	inactive: 75%
Cc1cccc(NC(=S)N(CCN(C)C)Cc2cc3cc4c(cc3[nH]c2=O)OCO4)c1	inactive: 108%
O=C(CSc1nnc(-c2ccc(NS(=O)(=O)c3ccccc3)cc2)o1)NCC1CCCO1 (stereo not given)	inactive: 95%
Cc1ccc(NC(=O)Cn2ncn3c(cc4ccccc43)c2=O)c(C)c1	inactive: 75%
COc1ccccc1CNC(=O)Cc1csc2nc(-c3ccc(Cl)cc3)cn12	inactive: 73%
CCOc1cc(CNC(=O)c2ccc(C)c(NC(=O)c3nsc4ccccc34)c2)ccc1OC	inactive: 75%
CC(NC(=O)c1ccc2c(c1)N(Cc1ccc(Cl)cc1)C(=O)c1ccccc1S2(=O)=O)c1ccccc1 (stereo not given)	inactive: 99%
CCOc1cc2sc(N3CCC(C(=O)Nc4ccc(C)cc4)CC3)nc2cc1Br	inactive: 81%
O=C1CC(C(=O)NCc2ccco2)C2(CCCCC2)O1 (stereo not given)	inactive: 106%
CCCCCn1c(=N)c(S(=O)(=O)c2ccccc2)cc2c(=O)n3ccccc3nc21	inactive: 80%

SMILES	survival
CCOc1ccc(CCNC(=O)Cn2nc(CC)n3c(cc4sc(CC)cc43)c2=O)cc1OCC	inactive: 87%
CCn1c(=O)c2cc(C(=O)NC3CCCCCC3)sc2c2ccccc21	inactive: 70%
O=c1[nH]c(C2CCCNC2)nc2c1nnn2Cc1ccccc1 (stereo not given)	inactive: 103%
CCc1ccc(CSc2nc(-c3ccc(OC)cc3)nc3c2Cc2c(CO)cnc(C)c2O3)cc1	inactive: 85%
O=S(=O)(NCc1ccccc1)c1ccc(-c2cnc(C3CC3)o2)cc1	inactive: 83%
CCOC(=O)c1sc(NC(=O)c2nc3ncccn3n2)c(C(=O)OC)c1C	inactive: 64%
Cc1ccc(S(=O)(=O)N(C#N)c2nc(C)cc(C)n2)cc1	inactive: 103%
O=C(CCNS(=O)(=O)c1ccc2c(c1)CCN2C(=O)C1CC1)N1CCN(c2ccc(F)cc2)CC1	inactive: 127%
COc1ccc(S(=O)(=O)c2cn(Cc3ccccc3)c3cc(N4CCCC4)c(F)cc3c2=O)cc1	inactive: 90%
COc1ccc(CCNC(=O)CCCCn2c(=O)c3ccccc3n(CC(=O)Nc3ccccc3C)c2=O)cc1OC	inactive: 104%
CCCOc1cccc(C(=O)Nc2ccc(-c3nc4ccccc4s3)c(Cl)c2)c1	inactive: 65%
CCN1C(C(=O)c2ccccc2)=C(OC(=O)C(C)C)c2ccccc2S1(=O)=O	inactive: 78%
COc1ccc(CCNC(=O)CCn2c(=O)c3ccccc3n(Cc3ccc(Cl)cc3)c2=O)cc1OC	inactive: 150%
CCc1ccccc1NC(=O)Cn1c(=O)nc(-c2ccccc2)c2ccccc21	inactive: 138%
CCc1cc(CC)c(/C=N/NC(N)=O)c(CC)c1/C=N/NC(N)=O	inactive: 119%
C=C(C)CSc1nc2sc3c(c2c(=O)n1CCCC)CCCC3	active: 0%
CCOC(=O)c1c(C)[nH]c(C)c1S(=O)(=O)N1CCC(C(=O)NCc2ccc(C)cc2)CC1	inactive: 71%
CCN1C(=O)CC(n2c(C)nc3ccccc32)C1=O (stereo not given)	inactive: 108%
O=c1c2c([nH]n1-c1ccccc1)CCCC2	inactive: 123%
COc1ccc(CNC(=O)C2CCN(c3nc4ccc(C)cc4[nH]3)CC2)cc1	inactive: 83%
CCn1c2c(c(=O)n3ncc(C(=O)Nc4cccc(Cl)c4C)c13)CN(Cc1ccc(OC)cc1)CC2	inactive: 74%
CCCC(O)c1nc2ccccc2n1CCCCOc1ccc(OC)cc1 (stereo not given)	inactive: 74%
O=C(O)Cn1ccnc1	inactive: 104%

SMILES	survival
Cc1cc(C)cc(NC(=O)CSc2nncn3c2cc2occc23)c1	inactive: 66%
O=C(Nc1ccc(N2CCN(CCOc3ccc(Cl)cc3)CC2)c(C(=O)O)c1)c1ccc(F)cc1	active: -3%
CCCn1c(SCC(O)c2cccc(OC)c2)nc2ccccc21 (stereo not given)	inactive: 81%
CC1=CS(=O)(=O)CC1Sc1ncn[nH]1 (stereo not given)	inactive: 46%
COc1ccccc1C(=O)NC1(C(F)(F)F)C(=O)Nc2c1c(=O)[nH]c(=O)n2CCc1ccccc1 (stereo not given)	inactive: 81%
COC(=O)c1cn(CC(=O)Nc2ccc(F)cc2)c2ccccc12	inactive: 105%
O=C(Nc1cccc(Cl)c1)C1=CC(=O)N2CCN=C2S1	inactive: 88%
COc1ccc(CNC(=O)c2nnn(CC(=O)Nc3cc(C)cc(C)c3)c2N)cc1	inactive: 93%
CCc1nc2ccccc2n1CCCCOc1ccccc1C	active: 24%
COC(=O)c1ccc(-n2c(/C=C\c3cccc(Br)c3)nc3ccccc3c2=O)cc1	inactive: 84%
Cc1ccc(S(=O)(=O)C(CNC(=O)C(=O)NCCc2ccccc2)c2ccco2)cc1 (stereo not given)	inactive: 76%
Cc1ccc(OCc2nc(-c3ccc(C(=O)N4CCN(c5ccc(Cl)cc5)CC4)cc3)oc2C)cc1	inactive: 72%
Cc1nn(Cc2ccc(Cl)cc2)c(C)c1NC(=O)c1noc2c1CCc1ccccc1-2	inactive: 66%
CC(C)CCNC(=O)CSc1c2c(nc3ccc(Cl)cc13)CCCC2	inactive: 79%
CC(C)Oc1ccc(CNC(=O)Cn2c(=O)oc3ccccc32)cc1	inactive: 65%
Cc1cccc(-c2nc(SCC(=O)Nc3cccc(C(F)(F)F)c3)n3[nH]c(=O)cc3n2)c1	active: -3%
CCOc1ccc(CNC(=O)C2CCCN(S(=O)(=O)c3ccc4c(c3)CCCC(=O)N4)C2)cc1 (stereo not given)	inactive: 83%
CCOC(=O)C1=C(CN2CCN(CC)CC2)NC(=O)NC1c1ccc(Cl)cc1 (stereo not given)	inactive: 75%
Cc1cc(C(=O)NCc2ccccc2C)c2c(C)nn(-c3cccc(F)c3)c2n1	inactive: 76%
CCCn1c(=O)sc2cc(NC(=O)c3ccccc3OCC)ccc21	inactive: 85%
CCCCCCn1c(CNC(=O)c2ccccc2)nc2ccccc21	inactive: 91%

From PubChem BioAssay AID463173 (ICCB-Longwood Screening Facility, Harvard Medical School, 2010)
